In paper PMC4552080:
No constants are given. Whether binding was seen depends on the method and setting. Binding seen in cells or lysates may run through a third protein. Some results given as binding are weak or reduced against the parent protein; the word gives no strength. For some of these results: Where a sequence is shown, tags or fusion partners need not be part of it.

Amino acid sequences for entries named in this document (tags omitted). A change or cut given only in a name is not applied to a line headed by its entry. Chains listed by the source or under a name are the forms on record and can include a tag or linker.
UniProt P08151: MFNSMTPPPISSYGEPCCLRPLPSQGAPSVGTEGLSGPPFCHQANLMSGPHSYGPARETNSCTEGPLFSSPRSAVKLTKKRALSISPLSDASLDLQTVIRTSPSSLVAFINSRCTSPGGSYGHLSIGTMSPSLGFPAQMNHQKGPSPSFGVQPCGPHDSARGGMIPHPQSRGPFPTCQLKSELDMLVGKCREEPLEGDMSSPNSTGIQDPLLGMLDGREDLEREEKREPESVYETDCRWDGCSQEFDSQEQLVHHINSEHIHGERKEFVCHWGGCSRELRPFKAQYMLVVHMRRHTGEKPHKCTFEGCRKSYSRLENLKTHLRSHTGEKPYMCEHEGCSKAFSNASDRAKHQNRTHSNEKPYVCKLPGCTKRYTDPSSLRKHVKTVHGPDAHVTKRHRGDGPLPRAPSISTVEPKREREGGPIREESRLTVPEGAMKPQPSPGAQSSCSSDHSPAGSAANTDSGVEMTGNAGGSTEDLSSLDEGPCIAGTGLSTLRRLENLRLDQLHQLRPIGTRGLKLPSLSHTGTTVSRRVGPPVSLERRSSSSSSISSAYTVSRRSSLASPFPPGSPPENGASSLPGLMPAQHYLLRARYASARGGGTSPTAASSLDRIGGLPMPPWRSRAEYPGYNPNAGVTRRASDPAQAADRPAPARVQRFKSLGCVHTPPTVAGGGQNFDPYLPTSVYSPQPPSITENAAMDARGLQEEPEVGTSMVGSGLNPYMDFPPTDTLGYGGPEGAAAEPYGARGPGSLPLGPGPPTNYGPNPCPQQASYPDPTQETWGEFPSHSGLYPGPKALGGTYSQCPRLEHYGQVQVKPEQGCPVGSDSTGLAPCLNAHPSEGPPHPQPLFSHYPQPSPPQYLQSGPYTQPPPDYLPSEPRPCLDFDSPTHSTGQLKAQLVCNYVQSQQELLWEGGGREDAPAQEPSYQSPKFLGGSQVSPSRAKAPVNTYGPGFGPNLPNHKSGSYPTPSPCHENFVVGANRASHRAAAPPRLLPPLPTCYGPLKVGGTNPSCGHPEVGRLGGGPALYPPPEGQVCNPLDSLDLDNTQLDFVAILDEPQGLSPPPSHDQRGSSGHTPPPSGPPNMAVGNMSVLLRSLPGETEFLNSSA
GLI1 S102/104/130/132D (S4D; phosphomimicking) mutant (P08151, form named): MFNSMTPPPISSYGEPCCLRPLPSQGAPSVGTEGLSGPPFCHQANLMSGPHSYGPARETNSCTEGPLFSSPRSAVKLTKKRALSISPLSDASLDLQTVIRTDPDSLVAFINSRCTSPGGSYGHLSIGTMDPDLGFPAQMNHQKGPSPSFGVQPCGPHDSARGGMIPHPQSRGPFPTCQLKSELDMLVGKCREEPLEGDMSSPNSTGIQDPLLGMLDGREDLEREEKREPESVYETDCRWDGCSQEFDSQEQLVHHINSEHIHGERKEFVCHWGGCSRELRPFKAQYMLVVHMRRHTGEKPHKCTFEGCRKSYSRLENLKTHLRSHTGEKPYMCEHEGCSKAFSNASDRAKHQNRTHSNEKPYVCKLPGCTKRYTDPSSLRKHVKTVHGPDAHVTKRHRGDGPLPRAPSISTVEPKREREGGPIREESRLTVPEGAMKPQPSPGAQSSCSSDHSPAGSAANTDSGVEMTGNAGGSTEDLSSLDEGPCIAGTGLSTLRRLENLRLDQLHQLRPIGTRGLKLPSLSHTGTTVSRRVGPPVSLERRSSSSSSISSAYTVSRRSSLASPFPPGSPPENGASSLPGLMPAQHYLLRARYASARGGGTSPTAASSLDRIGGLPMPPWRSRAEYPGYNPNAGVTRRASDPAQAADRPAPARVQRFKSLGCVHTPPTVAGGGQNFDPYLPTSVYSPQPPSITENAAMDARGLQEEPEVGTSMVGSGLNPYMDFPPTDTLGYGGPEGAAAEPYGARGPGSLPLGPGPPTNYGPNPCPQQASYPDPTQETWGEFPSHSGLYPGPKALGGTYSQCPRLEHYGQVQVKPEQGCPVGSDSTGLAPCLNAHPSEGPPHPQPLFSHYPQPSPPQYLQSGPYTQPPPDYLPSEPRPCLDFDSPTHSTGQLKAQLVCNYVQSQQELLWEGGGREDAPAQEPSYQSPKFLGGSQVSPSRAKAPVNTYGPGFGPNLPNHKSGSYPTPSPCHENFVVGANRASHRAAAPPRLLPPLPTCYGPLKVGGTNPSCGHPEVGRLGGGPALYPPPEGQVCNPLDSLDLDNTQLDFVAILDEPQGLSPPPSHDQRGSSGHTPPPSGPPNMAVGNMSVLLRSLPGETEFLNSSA
GLI1(S102/104/130/132A) mutant (P08151, form named): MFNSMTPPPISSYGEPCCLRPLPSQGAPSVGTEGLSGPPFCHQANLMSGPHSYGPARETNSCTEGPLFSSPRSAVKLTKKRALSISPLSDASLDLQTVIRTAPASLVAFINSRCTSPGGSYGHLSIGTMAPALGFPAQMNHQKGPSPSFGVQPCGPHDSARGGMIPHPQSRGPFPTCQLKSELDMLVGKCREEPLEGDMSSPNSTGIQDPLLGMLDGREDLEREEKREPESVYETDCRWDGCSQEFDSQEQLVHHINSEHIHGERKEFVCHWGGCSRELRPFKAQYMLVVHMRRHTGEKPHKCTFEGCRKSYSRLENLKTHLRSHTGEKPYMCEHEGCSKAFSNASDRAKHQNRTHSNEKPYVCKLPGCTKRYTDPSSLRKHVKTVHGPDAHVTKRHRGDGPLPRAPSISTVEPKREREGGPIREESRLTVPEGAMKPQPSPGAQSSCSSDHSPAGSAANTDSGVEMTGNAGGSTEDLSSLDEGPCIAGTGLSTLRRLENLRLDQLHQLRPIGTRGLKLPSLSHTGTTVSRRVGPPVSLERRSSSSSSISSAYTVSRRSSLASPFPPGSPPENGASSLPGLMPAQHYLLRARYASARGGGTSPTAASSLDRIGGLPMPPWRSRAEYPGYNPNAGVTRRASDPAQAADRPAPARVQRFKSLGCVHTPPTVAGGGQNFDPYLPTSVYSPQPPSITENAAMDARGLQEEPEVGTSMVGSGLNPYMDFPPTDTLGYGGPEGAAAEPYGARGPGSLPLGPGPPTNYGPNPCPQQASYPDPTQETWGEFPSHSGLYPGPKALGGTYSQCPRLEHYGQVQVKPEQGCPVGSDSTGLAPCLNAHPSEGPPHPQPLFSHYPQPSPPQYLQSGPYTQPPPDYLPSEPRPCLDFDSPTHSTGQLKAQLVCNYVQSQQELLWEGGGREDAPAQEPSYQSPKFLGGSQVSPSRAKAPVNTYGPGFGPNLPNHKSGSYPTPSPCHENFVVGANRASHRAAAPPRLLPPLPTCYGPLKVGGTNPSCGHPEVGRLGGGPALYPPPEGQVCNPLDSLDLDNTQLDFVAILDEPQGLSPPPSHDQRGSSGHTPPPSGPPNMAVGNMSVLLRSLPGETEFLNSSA

Key:
[1] = target: T1, suppressor of fused (SUFU), exogenous (UniProt Q9UMX1); assay: co-IP; exogenous SUFU and GLI1 (wild type or mutant) co-transfected in HEK293T cells; without DYRK1A, or with kinase-dead DYRK1A K188R
T1 sequence: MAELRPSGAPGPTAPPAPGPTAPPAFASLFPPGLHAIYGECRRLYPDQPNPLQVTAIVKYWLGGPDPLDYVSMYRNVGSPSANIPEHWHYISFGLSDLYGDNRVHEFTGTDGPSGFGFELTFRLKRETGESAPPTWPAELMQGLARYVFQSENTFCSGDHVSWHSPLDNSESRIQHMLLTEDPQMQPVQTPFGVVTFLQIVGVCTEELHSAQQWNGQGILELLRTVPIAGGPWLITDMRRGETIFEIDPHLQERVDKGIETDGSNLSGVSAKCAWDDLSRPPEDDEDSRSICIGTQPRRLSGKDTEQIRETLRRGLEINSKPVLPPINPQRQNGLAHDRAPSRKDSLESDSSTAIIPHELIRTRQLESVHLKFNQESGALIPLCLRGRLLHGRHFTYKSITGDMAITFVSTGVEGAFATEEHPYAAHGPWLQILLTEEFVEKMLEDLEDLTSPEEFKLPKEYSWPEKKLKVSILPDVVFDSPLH

[2] = target: T1, suppressor of fused (SUFU), exogenous; assay: co-IP; exogenous SUFU and GLI1 (wild type or mutant) in HEK293T cells with co-transfected active DYRK1A
[3] = target: T2, Jumonji domain demethylase 1A (JMJD1A, KDM3A), endogenous (human (endogenous in Hek293T)) (UniProt Q9Y4C1); assay: co-IP; endogenous KDM3A and endogenous GLI1 in Hek293T cells
T2 sequence: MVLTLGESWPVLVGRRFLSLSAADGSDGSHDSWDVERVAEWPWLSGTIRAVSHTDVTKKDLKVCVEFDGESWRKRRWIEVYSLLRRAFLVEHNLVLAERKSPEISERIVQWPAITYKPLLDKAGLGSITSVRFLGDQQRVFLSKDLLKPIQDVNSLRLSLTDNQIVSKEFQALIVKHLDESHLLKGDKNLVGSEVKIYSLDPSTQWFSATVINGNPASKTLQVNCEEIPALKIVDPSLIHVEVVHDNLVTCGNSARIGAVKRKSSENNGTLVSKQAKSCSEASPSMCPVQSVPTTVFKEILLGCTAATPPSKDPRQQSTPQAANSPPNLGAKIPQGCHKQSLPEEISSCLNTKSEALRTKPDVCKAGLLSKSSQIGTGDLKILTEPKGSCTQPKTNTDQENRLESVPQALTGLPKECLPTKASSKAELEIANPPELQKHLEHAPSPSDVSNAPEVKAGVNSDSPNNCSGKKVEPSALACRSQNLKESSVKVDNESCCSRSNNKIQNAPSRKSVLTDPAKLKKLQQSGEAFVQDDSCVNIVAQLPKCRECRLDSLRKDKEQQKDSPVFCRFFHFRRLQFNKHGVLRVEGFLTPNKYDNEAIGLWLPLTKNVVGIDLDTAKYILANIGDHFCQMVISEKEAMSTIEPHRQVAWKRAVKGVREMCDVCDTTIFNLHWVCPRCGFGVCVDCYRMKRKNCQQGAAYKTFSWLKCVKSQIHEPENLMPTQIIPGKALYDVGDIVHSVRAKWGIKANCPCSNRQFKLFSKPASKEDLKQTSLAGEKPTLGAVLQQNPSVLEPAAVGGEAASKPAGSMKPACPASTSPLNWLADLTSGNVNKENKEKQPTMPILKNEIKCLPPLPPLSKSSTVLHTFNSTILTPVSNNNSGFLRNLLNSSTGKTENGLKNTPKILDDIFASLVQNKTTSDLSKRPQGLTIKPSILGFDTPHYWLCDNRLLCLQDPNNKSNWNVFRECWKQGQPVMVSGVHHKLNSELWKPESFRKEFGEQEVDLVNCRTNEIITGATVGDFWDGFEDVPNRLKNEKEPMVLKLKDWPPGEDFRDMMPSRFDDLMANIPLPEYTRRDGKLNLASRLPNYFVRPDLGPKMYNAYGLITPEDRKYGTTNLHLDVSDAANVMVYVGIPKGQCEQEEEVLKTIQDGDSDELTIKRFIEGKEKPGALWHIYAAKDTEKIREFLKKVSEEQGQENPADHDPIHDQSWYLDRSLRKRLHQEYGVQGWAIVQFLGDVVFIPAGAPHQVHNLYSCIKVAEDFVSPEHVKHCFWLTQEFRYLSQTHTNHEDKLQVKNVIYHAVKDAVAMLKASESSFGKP

| Substance | binding [1] | binding [2] | binding [3] |
| --- | --- | --- | --- |
| GLI1 S102/104/130/132D (S4D; phosphomimicking) mutant (from UniProt P08151 1-1106) | binds | no binding (condition: with co-transfected DYRK1A) |  |
| GLI1(S102/104/130/132A) mutant (from UniProt P08151 1-1106) | binds | no binding (condition: with co-transfected DYRK1A) |  |
| GLI1 (exogenous, wild type) (from UniProt P08151 1-1106) | binds | no binding (condition: with co-transfected DYRK1A) |  |
| GLI1, endogenous (from UniProt P08151 1-1106) |  |  | binds |
